Results are given in words; binding and its absence hold for the method and conditions named. In cells and extracts the contact can be indirect. Some entries that bind do so weakly or less than the wild type. For part of these data: Tags and fused reporters may be left off the sequences shown. Blank lines part the entries; values can stand above or below the substance they belong to.
Experiments:
[1] = molecular target: T1, FLAG-GLI1 (424-1106), expressed in HEK-293T (plasmid pCDNA-GLI1(424-1106)-3xFLAG) (UniProt P08151); assay: co-IP; HEK-293T cells co-transfected, lysed 24 h later in Triton X-100 buffer; FLAG-GLI1 forms precipitated with anti-FLAG agarose beads, 2 h at 4 °C; control beads saturated with FLAG peptide; anti-MYC blot
T1 sequence: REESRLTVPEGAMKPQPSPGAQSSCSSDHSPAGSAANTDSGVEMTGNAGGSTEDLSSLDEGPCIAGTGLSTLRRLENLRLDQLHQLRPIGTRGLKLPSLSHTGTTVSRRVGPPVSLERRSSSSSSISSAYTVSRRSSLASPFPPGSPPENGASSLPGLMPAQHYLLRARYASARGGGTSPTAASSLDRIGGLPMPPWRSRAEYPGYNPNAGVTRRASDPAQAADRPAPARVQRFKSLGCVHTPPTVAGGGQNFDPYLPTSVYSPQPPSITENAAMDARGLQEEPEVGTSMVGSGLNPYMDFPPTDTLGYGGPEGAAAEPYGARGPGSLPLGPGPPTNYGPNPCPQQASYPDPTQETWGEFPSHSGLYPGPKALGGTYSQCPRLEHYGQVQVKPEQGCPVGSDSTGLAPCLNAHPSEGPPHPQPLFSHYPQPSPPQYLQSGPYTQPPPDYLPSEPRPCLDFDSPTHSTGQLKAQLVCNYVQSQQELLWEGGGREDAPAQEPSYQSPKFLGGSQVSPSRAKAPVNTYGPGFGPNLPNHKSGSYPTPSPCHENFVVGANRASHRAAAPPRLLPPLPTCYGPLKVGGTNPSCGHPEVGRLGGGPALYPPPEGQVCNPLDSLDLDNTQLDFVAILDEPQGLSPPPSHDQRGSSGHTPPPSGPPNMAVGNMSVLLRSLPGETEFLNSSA

By UniProt entry, the sequences of proteins in these tests, tags left out.
UniProt P47806: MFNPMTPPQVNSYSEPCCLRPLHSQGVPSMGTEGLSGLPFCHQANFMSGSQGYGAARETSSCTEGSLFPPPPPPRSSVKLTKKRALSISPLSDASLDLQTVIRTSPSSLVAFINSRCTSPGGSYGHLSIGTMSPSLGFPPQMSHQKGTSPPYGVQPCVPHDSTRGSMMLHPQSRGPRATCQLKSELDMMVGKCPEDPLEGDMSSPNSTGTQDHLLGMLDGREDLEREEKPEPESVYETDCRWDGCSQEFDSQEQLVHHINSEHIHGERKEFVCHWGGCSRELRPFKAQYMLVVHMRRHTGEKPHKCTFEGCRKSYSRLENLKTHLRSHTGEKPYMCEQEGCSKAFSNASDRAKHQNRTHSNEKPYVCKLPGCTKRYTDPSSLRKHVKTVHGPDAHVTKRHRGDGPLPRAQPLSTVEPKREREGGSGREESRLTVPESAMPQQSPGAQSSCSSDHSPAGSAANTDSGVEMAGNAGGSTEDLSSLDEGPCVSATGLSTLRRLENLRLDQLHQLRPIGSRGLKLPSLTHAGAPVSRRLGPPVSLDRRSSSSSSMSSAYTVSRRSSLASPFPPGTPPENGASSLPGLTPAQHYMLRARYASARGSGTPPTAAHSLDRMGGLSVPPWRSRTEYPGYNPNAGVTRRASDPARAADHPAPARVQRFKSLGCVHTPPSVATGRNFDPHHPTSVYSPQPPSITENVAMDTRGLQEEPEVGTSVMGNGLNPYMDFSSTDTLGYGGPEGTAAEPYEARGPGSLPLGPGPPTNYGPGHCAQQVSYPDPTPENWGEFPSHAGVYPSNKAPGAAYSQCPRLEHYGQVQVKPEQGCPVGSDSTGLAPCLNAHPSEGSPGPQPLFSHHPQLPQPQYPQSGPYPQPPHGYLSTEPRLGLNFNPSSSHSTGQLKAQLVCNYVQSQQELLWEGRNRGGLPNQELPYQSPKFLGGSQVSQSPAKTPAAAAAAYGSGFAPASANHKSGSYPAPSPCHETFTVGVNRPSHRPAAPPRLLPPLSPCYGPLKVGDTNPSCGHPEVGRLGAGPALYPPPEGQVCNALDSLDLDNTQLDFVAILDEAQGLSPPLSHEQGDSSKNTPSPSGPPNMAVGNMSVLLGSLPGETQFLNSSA
UniProt Q9HCE7: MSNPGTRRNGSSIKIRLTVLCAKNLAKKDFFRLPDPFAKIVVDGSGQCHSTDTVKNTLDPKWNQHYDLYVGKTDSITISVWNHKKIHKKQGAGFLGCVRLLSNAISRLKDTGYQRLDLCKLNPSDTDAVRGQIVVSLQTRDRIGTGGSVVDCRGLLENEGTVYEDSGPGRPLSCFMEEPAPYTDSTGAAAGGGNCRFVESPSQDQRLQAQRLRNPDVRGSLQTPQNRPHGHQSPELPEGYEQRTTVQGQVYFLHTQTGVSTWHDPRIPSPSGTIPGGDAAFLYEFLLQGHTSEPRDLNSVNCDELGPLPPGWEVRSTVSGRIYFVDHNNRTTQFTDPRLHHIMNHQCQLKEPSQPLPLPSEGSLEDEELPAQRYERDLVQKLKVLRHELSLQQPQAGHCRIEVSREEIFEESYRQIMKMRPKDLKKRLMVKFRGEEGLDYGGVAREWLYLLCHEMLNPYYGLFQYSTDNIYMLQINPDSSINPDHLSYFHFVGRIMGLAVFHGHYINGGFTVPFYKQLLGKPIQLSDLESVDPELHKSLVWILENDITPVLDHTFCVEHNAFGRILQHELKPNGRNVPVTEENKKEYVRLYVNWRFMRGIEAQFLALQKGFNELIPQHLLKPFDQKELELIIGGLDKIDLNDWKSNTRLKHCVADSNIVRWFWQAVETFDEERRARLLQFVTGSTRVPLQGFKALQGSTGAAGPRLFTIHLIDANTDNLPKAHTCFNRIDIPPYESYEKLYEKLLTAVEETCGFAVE
UniProt Q9HAU4: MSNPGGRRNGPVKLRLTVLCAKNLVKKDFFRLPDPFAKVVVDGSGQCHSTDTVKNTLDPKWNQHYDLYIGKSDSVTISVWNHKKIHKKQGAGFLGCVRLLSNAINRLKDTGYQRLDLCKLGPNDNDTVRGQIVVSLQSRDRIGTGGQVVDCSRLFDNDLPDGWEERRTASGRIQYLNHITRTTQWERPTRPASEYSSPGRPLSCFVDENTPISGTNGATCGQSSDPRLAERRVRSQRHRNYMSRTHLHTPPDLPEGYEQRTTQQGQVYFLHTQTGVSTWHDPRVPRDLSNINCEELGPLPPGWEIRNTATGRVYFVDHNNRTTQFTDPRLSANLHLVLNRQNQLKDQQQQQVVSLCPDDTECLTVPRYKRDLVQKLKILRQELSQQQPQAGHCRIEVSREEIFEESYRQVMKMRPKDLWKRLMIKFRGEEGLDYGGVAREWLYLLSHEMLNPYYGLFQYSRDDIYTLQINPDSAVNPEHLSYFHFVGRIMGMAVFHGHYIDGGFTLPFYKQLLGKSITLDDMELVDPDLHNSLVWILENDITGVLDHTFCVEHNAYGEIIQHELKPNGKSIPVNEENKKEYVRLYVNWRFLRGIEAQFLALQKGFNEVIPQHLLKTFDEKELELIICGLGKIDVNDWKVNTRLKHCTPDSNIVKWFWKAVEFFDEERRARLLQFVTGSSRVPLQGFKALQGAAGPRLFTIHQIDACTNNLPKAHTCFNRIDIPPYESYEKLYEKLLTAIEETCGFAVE
UniProt Q9CUN6: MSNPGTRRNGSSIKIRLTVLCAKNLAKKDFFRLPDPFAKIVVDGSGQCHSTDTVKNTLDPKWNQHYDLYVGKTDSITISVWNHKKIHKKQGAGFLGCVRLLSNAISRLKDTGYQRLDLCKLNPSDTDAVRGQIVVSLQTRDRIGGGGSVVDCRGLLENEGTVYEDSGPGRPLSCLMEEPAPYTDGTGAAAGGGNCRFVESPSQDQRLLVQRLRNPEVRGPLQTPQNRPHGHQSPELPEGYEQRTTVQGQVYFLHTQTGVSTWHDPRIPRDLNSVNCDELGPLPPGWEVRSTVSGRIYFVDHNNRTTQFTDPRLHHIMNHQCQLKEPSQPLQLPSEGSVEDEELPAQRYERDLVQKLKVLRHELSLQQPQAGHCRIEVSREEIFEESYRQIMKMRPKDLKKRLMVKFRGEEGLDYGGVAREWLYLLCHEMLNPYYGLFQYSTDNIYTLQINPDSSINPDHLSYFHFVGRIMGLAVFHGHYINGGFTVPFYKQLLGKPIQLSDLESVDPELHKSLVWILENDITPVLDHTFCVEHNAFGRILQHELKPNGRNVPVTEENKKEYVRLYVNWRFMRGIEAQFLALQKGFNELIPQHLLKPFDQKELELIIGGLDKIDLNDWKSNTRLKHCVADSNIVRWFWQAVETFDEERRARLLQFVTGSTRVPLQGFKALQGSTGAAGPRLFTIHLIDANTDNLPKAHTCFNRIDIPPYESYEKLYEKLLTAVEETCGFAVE

[2] = molecular target: FLAG-GLI1 (1-413), expressed in HEK-293T (plasmid pCDNA-GLI1(1-413)-3xFLAG) (UniProt P08151); assay: as above
[3] = molecular target: FLAG-GLI1 (full length GLI1, plasmid pCDNA-GLI1-3xFLAG) (UniProt P08151); assay: as above
[4] = molecular target: T2, FLAG-GLI1 (424-1106), in vitro translated (UniProt P08151); assay: co-IP; in vitro translated proteins (rabbit reticulocyte lysate) incubated together 2 h at 4 °C, precipitated with anti-FLAG agarose beads; control beads saturated with FLAG peptide; anti-MYC blot
T2 sequence: T1 sequence

[5] = molecular target: FLAG-GLI1 (1-413), in vitro translated (UniProt P08151); assay: as above
[6] = molecular target: endogenous GLI1 (NIH-3T3 cells) (mouse (endogenous in NIH-3T3)) (UniProt P47806); assay: proximity ligation; NIH-3T3 cells, endogenous proteins, fixed in 4% paraformaldehyde, permeabilised; control without primary antibody
[7] = molecular target: endogenous GLI1 (medulloblastoma cells) (human (endogenous in DAOY, ONS-76)) (UniProt P08151); assay: co-IP; endogenous proteins in DAOY and ONS-76 lysates; precipitated with anti-GLI1 (H-300) antibody and Protein A agarose; control IgG; anti-SMURF1 and anti-SMURF2 blots
[8] = molecular target: FLAG-GLI1 (full length GLI1, plasmid pCDNA-GLI1-3xFLAG) (UniProt P08151); assay: proximity ligation; HEK-293T cells transfected with FLAG-GLI1, fixed in 4% paraformaldehyde, permeabilised; primary antibodies anti-FLAG, anti-GLI1, anti-SMURF1 or anti-SMURF2; control without primary antibody

- binding [1]: binds
- binding [2]: no binding
- binding [3]: binds
Substance: MYC-SMURF1 (plasmid pRK1-MYC-SMURF1) (from UniProt Q9HCE7 1-757) (enzyme)

- binding [4]: binds
- binding [5]: no binding
Substance: MYC-SMURF1, in vitro translated (plasmid pRK1-MYC-SMURF1) (from UniProt Q9HCE7 1-757) (enzyme)

- binding [1]: binds
- binding [2]: no binding
- binding [3]: binds
Substance: MYC-SMURF2 (plasmid pRK1-MYC-SMURF2) (from UniProt Q9HAU4 1-748) (enzyme)

- binding [4]: binds
- binding [5]: no binding
Substance: MYC-SMURF2, in vitro translated (plasmid pRK1-MYC-SMURF2) (from UniProt Q9HAU4 1-748) (enzyme)

- binding [6]: binds
Substance: endogenous SMURF1 (NIH-3T3 cells) (from UniProt Q9CUN6 1-731) (enzyme)

- binding [7]: binds
- binding [8]: binds
Substance: endogenous SMURF1 (human cells) (from UniProt Q9HCE7 1-757) (enzyme)

- binding [7]: binds
- binding [8]: binds
Substance: endogenous SMURF2 (human cells) (from UniProt Q9HAU4 1-748) (enzyme)

From article PMC11655642
